# Reference: publication PMC10668032
# Some of the results follow. At the low end of the ranking the order means little.
# Molecular target: SIX1-Q177R homeodomain (UniProt Q15475)
# Assay: universal protein binding microarray
# Settings: Universal all-10-mer PBM (8x60K, AMADID 030236), 300 nM GST-tagged protein, Alexa Fluor 488 anti-GST; buffer, salt, pH and temperature not stated; high values mean tight binding; most listed sequences are background and not binding sites; double strand, one strand shown
row,Sequence,binding signal [E-score]
1,GTCCAGTA,-0.1
2,CCATCGGC,-0.244
3,CAAGCAAC,-0.0429
4,CGCGCACC,0.193
5,AAGATTAA,-0.0325
6,GCCCTCCC,0.0286
7,CTTCCTCA,-0.0983
8,ACACATCG,-0.0326
9,CACGCTTA,0.276
10,AGGGGTAT,0.3
11,CGCCGGTC,-0.343
12,AACGGGCG,-0.127
13,TCGCGACA,0.0613
14,CGGCAGTC,-0.115
15,CAGATTCG,0.161
16,CCGACCCC,0.24
17,AGGCCCTC,-0.258
18,TCTTGTAA,-0.112
19,AGCCATCG,0.0657
20,GTGTACGA,0.439
21,GAGATAAC,-0.154
22,AAGATATA,-0.135
23,CGTGCCCC,0.0729
24,TAGCTATA,-0.0737
25,AGAGATAG,-0.189

row,Sequence,binding signal [E-score]
1,AACGATAG,0.019
2,TCAATTCA,-0.126
3,AGGTGAAG,0.0364
4,ACCTATAC,0.205
5,AAAAAGGC,-0.314
6,AGATTGAA,0.0443
7,CAATGCAC,0.0545
8,AAGTCTGT,-0.16
9,GCCTTAAA,-0.306
10,CAGGAAAA,0.044
11,CATACCGG,-0.0597
12,TCTTTCAA,0.00619
13,AGGAGAGG,-0.0668
14,TGTGATAA,0.0924
15,GAGCGATA,-0.0883
16,CCGGCCAG,-0.00733
17,ACCTTCGG,0.141
18,CCGAGCCA,0.0328
19,ACTTGAGG,0.0625
20,TGTCTTAA,0.022
21,GTTCGTAA,-0.0759
22,GCCCACGC,-0.232
23,GACTGGAC,-0.185
24,AACCGTGC,0.0611
25,AGGTTTTA,-0.176

row,Sequence,binding signal [E-score]
1,AGCCGGTA,-0.0142
2,GCATGTAC,-0.0968
3,ATTTCGCG,-0.174
4,TCATACCA,-0.0855
5,ACGACCCT,0.0887
6,CCAGGCGA,-0.0155
7,CATAATCA,-0.131
8,AGTTAACG,-0.0261
9,AGCTCGGA,-0.124
10,ACGGACCC,0.127
11,TAGATGCA,0.0103
12,AGGGTGTA,0.475
13,TGTAGCAA,0.128
14,TATATGAA,0.00389
15,AACCTGTA,-0.217
16,AAGCCCTA,-0.15
17,AACGCACA,0.00611
18,CTATTTGC,-0.152
19,AGAAGACC,-0.129
20,GCCTGGAA,-0.179
21,CTGCTTGC,-0.3
22,CCGTCACG,-0.0622
23,ATCGTCTA,-0.0482
24,CGCGGGAC,0.0259
25,AGTGCGGG,0.0407

row,Sequence,binding signal [E-score]
1,AGTATAAG,-0.057
2,AATTACTC,0.0272
3,AAGCCTGC,-0.209
4,AAATTACC,-0.0497
5,TGGCTCAA,-0.199
6,CTCCGAGA,-0.0574
7,AGGGTGTG,0.4
8,GTCTTTAA,-0.161
9,ATTCCGTA,-0.141
10,CCGCGTTA,0.0838
11,CTTGAGCA,-0.105
12,ATCTATCC,-0.0386
13,AATGTGTG,0.104
14,CCCCATCA,0.186
15,AAACCTGT,-0.21
16,ATACTTAG,0.0236
17,CCGCCTAA,-0.0448
18,ACTTCCCC,-0.11
19,AGTCCTCG,-0.0778
20,GACGCAGC,-0.0663
21,TTCATGAA,0.094
22,CTCATCGA,-0.151
23,TAATGAAA,-0.137
24,AAGAATGG,-0.217
25,AAGCATTC,-0.217

row,Sequence,binding signal [E-score]
1,CAGTGTGA,0.306
2,AGAGGTCG,-0.111
3,CAACGGGA,-0.178
4,CGATTGAG,-0.139
5,GGCCGCAC,-0.0226
6,CTTTGATA,-0.0103
7,TACATGTA,0.069
8,ACTATAAC,0.137
9,CATAGCAC,0.195
10,CGGGGGAG,0.0729
11,GATTGCGA,-0.22
12,GCGTTGCC,0.0164
13,TTCGCCAA,-0.0996
14,CTAAAATC,-0.204
15,AATAATGT,-0.0278
16,CTGAGGCA,-0.203
17,CCATGGTC,-0.13
18,GCTGAACA,0.169
19,CAAAGCCA,0.0553
20,AGTGGGCA,-0.313
21,GATTTGAC,0.0166
22,TATTACCA,-0.118
23,TATTGCCA,-0.131
24,CAAAAAAG,-0.0937
25,CAGTATGG,-0.0566

row,Sequence,binding signal [E-score]
1,CATGTCAG,0.0142
2,ATTTCGCA,-0.152
3,ATCTTACG,-0.203
4,CTATCAAG,-0.0881
5,CATTCGAG,-0.109
6,GGTCGCAA,-0.016
7,AAATCCAT,-0.151
8,AAGAATAT,-0.329
9,CCGGTCTC,0.0177
10,CGTAACTC,0.0681
11,CCTGCAAA,-0.0958
12,AGAATACG,0.101
13,CGAAGTGC,-0.164
14,CGAAATTA,-0.221
15,CCGACCTC,0.114
16,ATAACTTG,-0.12
17,GCCGGATA,0.0853
18,ACAACACT,0.35
19,AACTGTCC,-0.266
20,AGAGCCTA,-0.198
21,ACATGGAC,-0.123
22,GGTGCCGA,0.188
23,ATCTCCTC,-0.1
24,ATGACTCG,0.0804
25,GCCGACCA,0.047

row,Sequence,binding signal [E-score]
1,ATATTCGG,0.00737
2,ATTCTCCA,-0.166
3,CTTGCAAG,-0.235
4,GTAGAGTA,0.253
5,CGCCCAAA,-0.224
6,GGGCATTA,0.0253
7,GGGCGGCA,-0.0597
8,ACACGGGC,0.424
9,GCCTGCGA,-0.241
10,GGTTTGTA,0.148
11,AGAGTGTC,0.412
12,GATCTTCC,0.0875
13,GTAAATAC,-0.0464
14,GGCTATAC,-0.0917
15,CGAGGCAG,-0.225
16,CCCTAGGA,0.0598
17,GCGAAACA,0.0471
18,ATTCATTG,-0.119
19,CACTCCTG,0.335
20,CTTGTGGC,-0.0678
21,AACCGGGA,-0.0494
22,CGGCCATA,-0.138
